# Source: PubChem BioAssay AID651568 (National Center for Advancing Translational Sciences (NCATS), 2012)
# Among all 1,200 compounds or so, about 55 (5%) were called active. Inconclusive results (about 15%) are left out. Calls follow the shape of the dose curve; as a rule, active = well fitted inhibition curve with a large enough effect; inconclusive = small, poorly fitted or top-dose-only effect; inactive = no such curve, though single readings can be large or run the other way. The list shows a part of the results.
# Test: qHTS Assay to Find Inhibitors of Chronic Active B-Cell Receptor Signaling: Hit Validation in Renilla Reporter Assay; also: nearly all actives have a fitted effect of over 70% in size
# Conditions: TMD8 IkB-Renilla luciferase reporter, NF-kB signaling; series mostly up to 57.5 µM; activity change, negative = inhibition: at the top concentration
# Method in brief: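 Orthogonal secondary test of primary-screen hits in ABC-DLBCL cells carrying constitutively expressed IkB-Photinus and Renilla luciferase reporters, read by Dual-Glo luminescence; luciferases differ from the primary assay's click beetle enzymes, to exclude assay-specific artifacts.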
# % is scaled to controls: 0 for no effect and ±100 for the full control effect; potency is read from the fitted curve at half-maximal effect.
SMILES,"activity change, negative = inhibition",Potency
CNc1nc(-c2ccc(OC)cc2)c(-c2ccc(OC)cc2)s1,inactive: -1%,–
O=C1CC(c2ccccc2)Cc2nc3ncnn3cc21 (stereo not drawn),inactive: -15.1%,–
O=[N+]([O-])c1cccnc1SCc1c(F)cccc1Cl,inactive: 1.58%,–
Cc1ccc(NC(=O)C(=O)NCC2CCCN2S(=O)(=O)c2cccs2)cc1C (stereo not drawn),inactive: 3.93%,–
Cc1ccc(NC(=S)NC(=O)c2ccc(F)cc2)cc1S(=O)(=O)Nc1cccc(Cl)c1,inactive: -68%,–
C=CCn1c(SCC(=O)NCCO)nc2sc(C)c(C)c2c1=O,inactive: 3.04%,–
COc1ccc(/C=N/NC(=O)C(=O)N2CCCCCC2)cc1[N+](=O)[O-],inactive: -0.149%,–
COc1cc(OC)cc(C(=O)Oc2c(CN3CCOCC3)cc(Cl)c3cccnc23)c1,inactive: 1.92%,–
CNC(=S)N/N=C(\C)c1ccc(Cl)s1,inactive: 0.177%,–
CC(=O)c1ccc2c(c1)CC(C)C(=O)N2C (stereo not drawn),inactive: 5.69%,–
Oc1cccc(/C=N/Nc2ccc(Cl)nn2)c1O,inactive: -24.8%,–
CN(CC(=O)O/N=C(\N)c1ccccn1)S(=O)(=O)c1cc(Cl)ccc1Cl,inactive: 3.71%,–
CCN(C(=O)c1cnc(NC(C)C)cc1C(F)(F)F)c1ccc(Cl)cc1Cl,inactive: -1.24%,–
COc1ccc(COC(=O)c2cc([N+](=O)[O-])ccc2N2CCOCC2)cc1F,inactive: -16.2%,–
CC1(CCc2ccc(O)cc2)NC(=O)NC1=O (stereo not drawn),inactive: -1.86%,–
O=c1cc(-c2ccc(F)cc2)[nH][nH]1,inactive: -13.3%,–
CCN(CC)S(=O)(=O)c1ccc(N2CCOCC2)c(NC(=O)c2[nH]c(C)c(C(C)=O)c2C)c1,inactive: 11%,–
CCN(c1cccc(C)c1)S(=O)(=O)c1ccc(-c2cc(C)no2)s1,inactive: 12%,–
COc1ccc(OC)c(C2C3=C(COC3=O)Nc3cc4c(cc32)OCO4)c1 (stereo not drawn),inactive: -14.2%,–
COc1cc(-c2noc(C)c2C#Cc2ccsc2)cc(OC)c1OC,inactive: -23.8%,–
COc1ccccc1C(=O)Nc1ccccc1SC(=O)c1ccccc1OC,–,active: 23.9 µM
CCOC(=O)c1ccc(NC(=O)Nc2ccon2)cc1,inactive: -17.6%,–
COc1ccc(NC(=S)N=Nc2c(O)[nH]c3ccccc23)cc1,inactive: -16.6%,–

SMILES,"activity change, negative = inhibition",Potency
COCCNC(=S)N/N=C(\C)c1ccccc1F,inactive: -0.357%,–
CCC1CCCCN1C(=S)NC(=O)c1cccs1 (stereo not drawn),inactive: -1.48%,–
COc1cc2c(cc1OC)-c1cc(NC3CCCCCC3)nc(=O)n1CC2,inactive: -5.21%,–
COc1ccc(/C=N/NC(=O)CCn2cnc(-c3ccccc3)c2-c2ccccc2)cc1,–,active: 26.9 µM
COc1ccc2c(c1)C(C)=CC(C)(C)N2S(=O)(=O)c1ccc(C)cc1,inactive: -1.01%,–
Cc1ccc2c(c1)C(=O)C(=O)N2CCOc1ccccc1,inactive: 2%,–
CCn1c2ccccc2c2cc(NC(=O)c3cc(OC)c(OC)c(OC)c3)ccc21,inactive: -23.2%,–
COc1ccc(/C=N/NC(=O)c2[nH]c3ccc(Cl)cc3c2-c2ccccc2)c(C(=O)O)c1OC,inactive: -14.4%,–
COc1ccc(NC(=S)NC(=O)/C=C/c2ccco2)cc1,inactive: 0.558%,–
CCN(CC)c1ccc(/C=N/NC(=S)NC)c(O)c1,inactive: -3.72%,–
CCOc1ccccc1C1CC(=O)Nc2cc3c(cc21)OCCO3 (stereo not drawn),inactive: -25.9%,–
Cc1onc(-c2ccccc2)c1C(=O)Nc1cc(C(F)(F)F)ccc1N1CCOCC1,inactive: -17.3%,–
CCOC(=O)COc1cccc2c(=O)n(CC(=O)NCc3ccc(F)cc3)ccc12,inactive: -14%,–
Cc1ccsc1/C=C/C1=NCCCN1C,inactive: -15.3%,–
O=C(CSc1cc(Cl)ccc1Cl)Nc1ccc(N2CCOCC2)cc1,inactive: 9.12%,–
CCCCC[C@H](O)/C=C/[C@@H]1[C@@H](C/C=C\CCCC(=O)OC)[C@@H](O)C[C@H]1O,inactive: -17.2%,–
COc1cc(/C=C2\OC(=O)c3c(OC)cccc32)ccc1O,inactive: 1.72%,–
Cc1noc(C)c1COc1cccc(C(=O)OCC(=O)N2CC(=O)Nc3ccccc32)c1,inactive: -1.58%,–
Nc1nc(SCc2nc(-c3ccccc3)no2)[nH]c(=O)c1-c1ccccc1,inactive: -4.57%,–
CCOC(=O)CSC1=C(C#N)C(c2ccc(C)s2)CC(=O)N1 (stereo not drawn),inactive: -26%,–
N#Cc1ccc(-c2cccs2)nc1SCc1cccnc1,inactive: -1.59%,–
OC[C@H]1O[C@@H](n2cnc3c(Nc4ccccc4)ncnc32)[C@H](O)[C@@H]1O,inactive: 0.625%,–
CC1CCC(n2c(=S)[nH]c3ccccc3c2=O)CC1 (stereo not drawn),inactive: 4.25%,–

SMILES,"activity change, negative = inhibition",Potency
COCc1ccc(O)c2ncccc12,inactive: -11%,–
COc1cccc(CN2c3ccc(Br)cc3C(=O)CS2(=O)=O)c1,inactive: -1.35%,–
O=C(Nc1cccc2ccccc12)c1cc2c(cc1Br)OCO2,inactive: 2.59%,–
CC(=O)N1c2ccc(C)cc2C(c2ccccc2)CC1C (stereo not drawn),inactive: -6.66%,–
COc1cc(/C=C\C(=O)OCn2nnc3ccccc3c2=O)cc(OC)c1OC,inactive: 3.59%,–
NCCNC(=O)Cc1cccc(NC(=O)Cc2ccc(Nc3ncnc4c3ncn4[C@@H]3O[C@H](CO)[C@@H](O)[C@H]3O)cc2)c1,inactive: -1.93%,–
CCC1=Nc2cc(C(=O)NCCCOC)ccc2Sc2ccccc21,inactive: 0.82%,–
Cc1ccc(S(=O)(=O)N(C)C[C@@H]2Oc3ccc(NC(=O)CCC(F)(F)F)cc3CC(=O)N([C@@H](C)CO)C[C@@H]2C)cc1,inactive: 3.29%,–
CCOC(=O)c1cnc(Nc2nc3ccccc3o2)nc1CSC(=S)N1CCCCC1,inactive: -1.89%,–
COc1ccc(CCn2c(N)cc(=O)[nH]c2=S)cc1OC,inactive: 2.32%,–
Cc1ccc(C(=O)c2cc([N+](=O)[O-])ccc2N2CCOCC2)c(C)c1,inactive: -2.34%,–
COCCCNC(=O)C[C@H]1C[C@H](C(=O)N2CCCCC2)[C@@]2(C)c3[nH]c4ccc(Cl)cc4c3CCN2C1=O,inactive: 5.47%,–
CCOc1ccccc1NC(=O)N1CCC(N2CCN(Cc3ccccc3)C(=O)C2=O)CC1,inactive: -4.14%,–
COc1ccc(Nc2cc(C)nc(-n3nc(C)cc3C)n2)cc1,inactive: -15.2%,–
CCCOc1ccc(Cn2ccnc2)cc1[N+](=O)[O-],inactive: 1.02%,–
S=C(Nc1ccccc1)Nc1nccs1,inactive: 0.806%,–
CCc1c(C)c(C#N)c2nc3ccccc3n2c1Cl,–,active: 0.953 µM
COc1ccc(-c2nn(-c3ccccc3)cc2C(=O)NC(=S)NNC(=O)c2ccncc2)cc1,inactive: 3.95%,–
O=C(/C=C/c1ccccc1)c1ccc(NC2=NCCCS2)cc1,–,active: 21.3 µM
CC(=O)Nc1ccc(Oc2cc(C#N)c(C#N)cc2N2CCOCC2)cc1,inactive: 1.6%,–
COc1ccc(-c2[nH]ncc2/C=C(\C#N)C(=O)NC2CC2)cc1,inactive: -9.08%,–
COc1cccc(Nc2sc(C(=O)c3ccc(F)cc3)c(N)c2C(=O)NCc2ccc(C)cc2)c1,inactive: -15.8%,–
